# Assay results: the supplement of paper PMC8728848
# The list shows a part of the results.
# B1: SCA (Schizophyllum commune) (protein)
# chain: MGIDQGVYLITNAGSGTAATLKDGYVKGWERIKGKEQLNQLWFVKSVKTSASDPGYAAFNLATNKVLDLEKGLADRGTPILGWDYHEGDNQHWVIKKQADGKYYKIQSVKTQTFVDLNNGGKDNGTKIQGWVGSWDETNSHQRWVFNQFSATGSRIKSILDTHPKIHGKVIVEWPDRIYFTPDQYIFEAIWAKTGLADIKPRDPLFQSEAYEKVFKGWVVSRAQEIIKVDGFDILVGSLSLVEKSTQKIKVLDVSVRTSDDKSPDLSQIVFFDPESGRTLVDIPEGYEVNSVII
# Legend:
# Experiment in all cases: glycan array binding signal (z-score within array); higher = stronger binding
# Conditions in all cases: glycan notation: IUPAC condensed, linker removed
# [1] = target: Fuc(a1-2)[GalNAc(a1-3)]Gal(b1-4)[Fuc(a1-3)]GlcNAc
# Method in brief: (§1)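 The Consortium for Functional Glycomics database supplied 3228 glycan arrays, of which those lacking an available protein sequence were dropped. The binding signal, a within-array Z-score, was averaged across arrays of the same protein sequence and across linkers. Negative scores can be read as non-binding.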
# [2] = target: Fuc(a1-2)[GalNAc(a1-3)]Gal(b1-4)[Fuc(a1-3)]GlcNAc(b1-3)GalNAc
# Method in brief: as §1
# [3] = target: Fuc(a1-2)[GalNAc(a1-4)]Gal(b1-4)GlcNAc
# Method in brief: as §1
# [4] = target: Fuc(a1-2)[GalNAc(b1-3)]Gal
# Method in brief: as §1
# Fuc(a1-3)GlcNAc = target: Fuc(a1-3)GlcNAc
# Method in brief: as §1
# [5] = target: Fuc(a1-3)[Gal(b1-4)]Glc6S
# Method in brief: as §1
# [6] = target: Fuc(a1-3)[Gal(b1-4)]GlcNAc
# Method in brief: as §1
# [7] = target: Fuc(a1-3)[Gal(b1-4)]GlcNAc(b1-2)Man(a1-3)[Fuc(a1-3)[Gal(b1-4)]GlcNAc(b1-2)Man(a1-6)]Man(b1-4)GlcNAc(b1-4)GlcNAc
# Method in brief: as §1
# [8] = target: Fuc(a1-3)[Gal(b1-4)]GlcNAc(b1-2)Man(a1-3)[Fuc(a1-3)[Gal(b1-4)]GlcNAc(b1-2)Man(a1-6)]Man(b1-4)GlcNAc(b1-4)[Fuc(a1-6)]GlcNAc
# Method in brief: as §1
# [9] = target: Fuc(a1-3)[Gal(b1-4)]GlcNAc(b1-3)Gal(b1-3)[Fuc(a1-4)]GlcNAc
# Method in brief: as §1
# [10] = target: Fuc(a1-3)[Gal(b1-4)]GlcNAc(b1-3)GalNAc
# Method in brief: as §1
# [11] = target: Fuc(a1-3)[Gal(b1-4)]GlcNAc(b1-4)Gal(b1-4)[Fuc(a1-3)]GlcNAc
# Method in brief: as §1
# [12] = target: Fuc(a1-3)[Gal(b1-4)]GlcNAc(b1-4)Gal(b1-4)[Fuc(a1-3)]GlcNAc(b1-4)Gal(b1-4)[Fuc(a1-3)]GlcNAc
# Method in brief: as §1
# [13] = target: Fuc(a1-3)[Gal(b1-4)]GlcNAc(b1-6)GalNAc
# Method in brief: as §1
# [14] = target: Fuc(a1-3)[Gal(b1-4)]GlcNAc(b1-6)[Gal(b1-3)GlcNAc(b1-3)]Gal(b1-4)Glc
# Method in brief: as §1
# [15] = target: Fuc(a1-3)[Gal(b1-4)]GlcNAc(b1-6)[Neu5Ac(a2-3)Gal(b1-3)]GalNAc
# Method in brief: as §1
# [16] = target: Fuc(a1-3)[Gal(b1-4)]GlcNAc6S
# Method in brief: as §1
# [17] = target: Fuc(a1-3)[Gal3S(b1-4)]GlcNAc
# Method in brief: as §1
# [18] = target: Fuc(a1-3)[Gal3S(b1-4)]GlcNAc6S
# Method in brief: as §1
# [19] = target: Fuc(a1-3)[GalNAc(b1-4)]GlcNAc
# Method in brief: as §1
# Fuc(a1-4)GlcNAc = target: Fuc(a1-4)GlcNAc
# Method in brief: as §1
# Fuc(b1-3)GlcNAc = target: Fuc(b1-3)GlcNAc
# Method in brief: as §1
# Gal(a1-2)Gal = target: Gal(a1-2)Gal
# Method in brief: as §1
# Gal(a1-3)Gal = target: Gal(a1-3)Gal
# Method in brief: as §1
# Gal(a1-3)Gal(b1-3)GlcNAc = target: Gal(a1-3)Gal(b1-3)GlcNAc
# Method in brief: as §1
# [20] = target: Gal(a1-3)Gal(b1-3)GlcNAc(b1-2)Man(a1-3)[Gal(a1-3)Gal(b1-3)GlcNAc(b1-2)Man(a1-6)]Man(b1-4)GlcNAc(b1-4)GlcNAc
# Method in brief: as §1
# [21] = target: Gal(a1-3)Gal(b1-3)GlcNAc(b1-3)GalNAc
# Method in brief: as §1
# [22] = target: Gal(a1-3)Gal(b1-3)[Fuc(a1-4)]GlcNAc(b1-2)Man(a1-3)[Gal(a1-3)Gal(b1-3)[Fuc(a1-4)]GlcNAc(b1-2)Man(a1-6)]Man(b1-4)GlcNAc(b1-4)GlcNAc
# Method in brief: as §1
# Gal(a1-3)Gal(b1-4)Glc = target: Gal(a1-3)Gal(b1-4)Glc
# Method in brief: as §1
# Gal(a1-3)Gal(b1-4)GlcNAc = target: Gal(a1-3)Gal(b1-4)GlcNAc
# Method in brief: as §1
# [23] = target: Gal(a1-3)Gal(b1-4)GlcNAc(b1-3)GalNAc
# Method in brief: as §1
# [24] = target: Gal(a1-3)Gal(b1-4)[Fuc(a1-3)]GlcNAc
# Method in brief: as §1
# [25] = target: Gal(a1-3)Gal(b1-4)[Fuc(a1-3)]GlcNAc(b1-2)Man(a1-3)[Gal(a1-3)Gal(b1-4)[Fuc(a1-3)]GlcNAc(b1-2)Man(a1-6)]Man(b1-4)GlcNAc(b1-4)GlcNAc
# Method in brief: as §1
# Gal(a1-3)GalNAc = target: Gal(a1-3)GalNAc
# Method in brief: as §1
# [26] = target: Gal(a1-3)[Gal(a1-4)]Gal(b1-4)GlcNAc
# Method in brief: as §1
# [27] = target: Gal(a1-4)Gal(b1-3)GlcNAc(b1-2)Man(a1-3)[Gal(a1-4)Gal(b1-3)GlcNAc(b1-2)Man(a1-6)]Man(b1-4)GlcNAc(b1-4)GlcNAc
# Method in brief: as §1
# Gal(a1-4)Gal(b1-4)Glc = target: Gal(a1-4)Gal(b1-4)Glc
# Method in brief: as §1
# Gal(a1-4)Gal(b1-4)GlcNAc = target: Gal(a1-4)Gal(b1-4)GlcNAc
# Method in brief: as §1
binder,measurement,setting,value
B1,glycan array binding signal (z-score),[1],-0.153
same,glycan array binding signal (z-score),[2],-0.129
same,glycan array binding signal (z-score),[3],0.703
same,glycan array binding signal (z-score),[4],-0.163
same,glycan array binding signal (z-score),Fuc(a1-3)GlcNAc,-0.163
same,glycan array binding signal (z-score),[5],-0.16
same,glycan array binding signal (z-score),[6],-0.162
same,glycan array binding signal (z-score),[7],-0.162
same,glycan array binding signal (z-score),[8],-0.156
same,glycan array binding signal (z-score),[9],-0.159
same,glycan array binding signal (z-score),[10],-0.161
same,glycan array binding signal (z-score),[11],-0.16
same,glycan array binding signal (z-score),[12],-0.163
same,glycan array binding signal (z-score),[13],-0.157
same,glycan array binding signal (z-score),[14],-0.16
same,glycan array binding signal (z-score),[15],-0.161
same,glycan array binding signal (z-score),[16],-0.16
same,glycan array binding signal (z-score),[17],-0.161
same,glycan array binding signal (z-score),[18],-0.16
same,glycan array binding signal (z-score),[19],-0.162
same,glycan array binding signal (z-score),Fuc(a1-4)GlcNAc,-0.163
same,glycan array binding signal (z-score),Fuc(b1-3)GlcNAc,-0.159
same,glycan array binding signal (z-score),Gal(a1-2)Gal,-0.159
same,glycan array binding signal (z-score),Gal(a1-3)Gal,-0.122
same,glycan array binding signal (z-score),Gal(a1-3)Gal(b1-3)GlcNAc,-0.119
same,glycan array binding signal (z-score),[20],-0.16
same,glycan array binding signal (z-score),[21],-0.09
same,glycan array binding signal (z-score),[22],-0.15
same,glycan array binding signal (z-score),Gal(a1-3)Gal(b1-4)Glc,-0.147
same,glycan array binding signal (z-score),Gal(a1-3)Gal(b1-4)GlcNAc,8.25
same,glycan array binding signal (z-score),[23],2.37
same,glycan array binding signal (z-score),[24],-0.163
same,glycan array binding signal (z-score),[25],-0.159
same,glycan array binding signal (z-score),Gal(a1-3)GalNAc,-0.158
same,glycan array binding signal (z-score),[26],-0.163
same,glycan array binding signal (z-score),[27],3.68
same,glycan array binding signal (z-score),Gal(a1-4)Gal(b1-4)Glc,-0.163
same,glycan array binding signal (z-score),Gal(a1-4)Gal(b1-4)GlcNAc,-0.085
